The results in this text go back to PubChem BioAssay AID1240 (Sanford-Burnham Center for Chemical Genomics, 2008).

The whole screen tested about 50,000 compounds, of which about 800 (1.6%) showed an effect of 50% or more. The list shows a part of the results.

For the test, the target named is Bcl-2-like protein 10 (Homo sapiens) (UniProt Q9HD36). Description: TR3 peptide-Bcl-B binding displacers, biochemical primary FP assay, phenotype converters (AID 1240).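 Note: 0% = Bcl-B with tracer peptide and DMSO and 100% = tracer peptide lacking Bcl-B.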 The conditions noted are these: GST-Bcl-B / FITC-TR3 peptide fluorescence polarization; stronger effect = higher value; compound at 3.75 mg/L.
Sequence of UniProt Q9HD36 (Q9HD36 whole entry, looked up): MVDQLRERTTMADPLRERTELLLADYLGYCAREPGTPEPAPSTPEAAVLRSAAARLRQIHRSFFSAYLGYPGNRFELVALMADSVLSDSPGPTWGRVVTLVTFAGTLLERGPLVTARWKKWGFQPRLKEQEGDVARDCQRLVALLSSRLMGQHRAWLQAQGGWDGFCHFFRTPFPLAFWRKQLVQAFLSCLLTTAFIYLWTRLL
On to `COc1cccc(CN2CCN(C(=O)c3ccco3)CC2)c1OC`, for which the displacement was -3.2%.

On to `CCOC(=O)c1c(NC(=O)CC2Sc3ccccc3NC2=O)sc(C)c1C` (centres undefined), for which the displacement is -4.1%.

For the compound `O=C1CC(c2ccccc2)CC(O)=C1C=NCCO` (centres undefined), the displacement amounted to 35.3%.

As to `CCc1cc(=O)oc2cc(OCC(N)=O)ccc12`, the displacement was 1.3%.

On to `CC(=O)Nc1cccc(/C(C)=N/N=C2/NC(=O)C(CC(=O)Nc3ccc(C)c(Cl)c3)S2)c1` (centres undefined), for which the displacement is -1.5%.

Regarding `N#Cc1ccccc1NS(=O)(=O)c1ccccc1[N+](=O)[O-]`, the displacement was 16.4%.

Regarding `O=C(Nc1ccc(OC(F)(F)F)cc1)c1cccc([N+](=O)[O-])c1`, the displacement is -1.6%.

As to `CC1(C)CC(=O)C2=C(C1)Nc1ccccc1NC2c1coc2ccccc2c1=O` (centres undefined), the displacement was -1.1%.

Turning to `O=c1c2ccccc2nc(SCc2ccc(Cl)cc2)n1-c1ccccc1`, the displacement is -13%.

On to `COc1ccc2c(c1OC)C(=O)OC2Nc1ccc(C(C)=O)cc1` (centres undefined), for which the displacement amounted to 4.1%.

In the case of `CN(C)CC1C(=O)N(c2ccccc2)N(c2ccccc2)C1=O`, the displacement amounted to 15.9%.

For `CN(C)/C=C1\N=C(c2ccc([N+](=O)[O-])cc2)OC1=O`, the displacement is -20.8%.

As for `Cc1ccc(Cl)cc1NC(=O)C(=O)NCCc1ccccc1`, the displacement is -13.4%.

Consider `CCN1CCN(S(=O)(=O)Cc2ccccc2)CC1`, for which the displacement amounted to 4.5%.

Consider `Cc1cc(C)c(NC(=O)C(C)Sc2nnc(-c3cccc(F)c3)n2-c2ccccc2)c(C)c1` (centres undefined), for which the displacement is -9.2%.

In the case of `O=C1C2ON(c3ccccc3)C(c3ccccn3)C2C(=O)N1c1cccc(C(F)(F)F)c1` (centres undefined), the displacement was -0.9%.

For `O=C1c2ccc3c4c(ccc(c24)C(=O)N1CCc1ccc(Cl)cc1)CC3`, the displacement is 7.5%.

For `Cc1cc(Cl)ccc1OCC(=O)Nc1ccc(I)cc1Cl`, the displacement was -1.2%.

For the compound `Cc1ccc2c(c1)NC(c1ccc(F)cc1)C1=C(CC(c3ccccc3)CC1=O)N2` (centres undefined), the displacement is -0.3%.

Turning to `Cc1ccsc1/C=C(\C#N)c1nc(-c2cccc([N+](=O)[O-])c2)cs1`, the displacement is 147%.

Take `COC(=O)c1cc(Cl)c(NC(=O)c2ccccc2CCc2ccccc2)cc1OC`: the displacement was -5.5%.

Turning to `CCN(CC)S(=O)(=O)c1ccc(NS(=O)(=O)c2ccc(NC(C)=O)cc2)cc1`, the displacement is -2.1%.

As for `O=C(Nc1ccc2oc(-c3cc(Br)ccc3Cl)nc2c1)c1ccc([N+](=O)[O-])cc1`, the displacement was found to be 9.4%.

`Cc1ccc(N=C(NOCc2ccc([N+](=O)[O-])cc2)c2nonc2N)cc1`: the displacement was 12.1%.

Take `COc1ccc(C2CC(=O)C3=C(C2)Nc2ccccc2NC3c2ccc(OCc3ccccc3)c(OC)c2)cc1` (centres undefined): the displacement is -7.9%.

Consider `O=C(NCC1CCCO1)c1cc2ccccc2oc1=O` (centres undefined), for which the displacement is -12.3%.

Consider `CCCCOC(=O)c1ccc(NC(=O)c2c(Cl)cccc2Cl)cc1`, for which the displacement was -7.7%.

As for `COc1ccc(CC(=O)N/N=C/c2ccc(-c3cc(Cl)ccc3C)o2)cc1`, the displacement was determined as 6.5%.

For `Oc1ccc(/C=N/Nc2nc3ccccc3s2)cc1`, the displacement is -5.4%.
